Experimental data from the supplement of paper PMC4466236.
In all, about 33,000 sequences were measured (“E-score (dimensionless, -0.5 to 0.5)”: median about -0.058, highest 2% from about 0.35 on). The list shows a part of the results.

tested on: MvaT; experiment: PBM 8-mer E-score (mean of HK and ME arrays) (E-score (dimensionless, -0.5 to 0.5)); higher = stronger relative binding preference; most listed sequences are background and not binding sites
Procedure, shortened: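 Full-length P. aeruginosa MvaT, with glutathione S-transferase fused to its N-terminus (cloned into pTH6838 by isothermal assembly), was tested by protein binding microarray using a previously described protocol. Two universal double-stranded 60-mer arrays (ME and HK) were used, each with a constant 25-mer primer region and a variable 35-mer region covering all 8-mers. The rank-based 8-mer E-score (-0.5 to 0.5) is the mean of the two arrays, parsed with a custom Python script.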

Sequence | PBM 8-mer E-score
CAGGAACG | -0.0449
ATCAGTGC | 0.0617
CTGAGAGA | -0.152
ATGAAGTG | 0.0372
GTAACCGA | 0.0603
GGGTAAAC | -0.045
GAACAGTA | 0.15
ACCAGGGT | -0.286
CAGAATGG | -0.147
ACCTTGAG | -0.171
CCGGCCCC | -0.331
GTTATACA | 0.281
GTGAATCA | -0.0866
AACTGTAC | 0.096
AAATGTGT | 0.227
AGACGTCT | 0.112
AGCGAATA | 0.118
TCAATGCA | 0.0828
CTGATGTA | 0.00103
CGCACTGC | 0.0373
AAATTTAC | 0.11
GAAAAACC | 0.0673
CTCGGTGC | -0.135
AGCTCAGC | -0.254
AACCATCG | -0.124

Sequence | PBM 8-mer E-score
ACGCAGGG | -0.289
AAGCGGGG | -0.0499
CGTTTAAG | 0.0815
TACGCCGA | -0.161
CACAGCTG | -0.0633
CTCACGGC | -0.215
ATTGTACC | 0.171
GGTACCGA | -0.173
CAGTTAGG | 0.0169
AGTCTTAG | 0.0244
AAATAGGG | 0.0471
GGCACTTA | 0.0393
CGGGGGCA | -0.297
CAACCAAG | -0.139
CTCGAAAA | -0.0277
CAAAAACG | -0.0419
CAGACCCC | -0.251
ACCTCTGG | -0.221
AAACCCTA | -0.0164
AGTAACAG | 0.018
GACGAATC | -0.225
AGATACCC | -0.0322
CGCTCATA | -0.0347
AAGCCCGG | -0.292
ACATGAGC | 8.08e-05

Sequence | PBM 8-mer E-score
GAACGATA | -0.00908
GGATCACA | -0.107
TAGAGAGA | 0.00267
CCCCAGGG | -0.277
ACAAATCA | 0.223
AGAGATGG | -0.141
GTGATAAC | 0.209
ATGCCCAC | -0.0414
CGGTTCTA | -0.18
CTCCAACC | -0.16
CACCGCCA | -0.154
GCGTCGCC | -0.203
CAATTGCC | 0.0531
AGTTCGAG | 0.11
AAATTCAC | 0.0554
AACGTCAC | -0.00265
GGGCGCAA | -0.235
GGATTATA | 0.32
GATAAATA | 0.382
GGCTAAAC | -0.00468
TGGTTGAA | -0.0872
CACCGAAG | -0.124
ATGATCCC | -0.0502
ACGGGGAG | -0.241
CGTAACAG | -0.0868

Sequence | PBM 8-mer E-score
ATTCAAAG | 0.102
CGCGGGTC | -0.255
CGCAAGGC | -0.213
ATCCTACA | -0.118
CGGAGCAC | -0.212
ATCATGCG | -0.0902
AACTCCGC | 0.0258
CAGACCTA | -0.191
CAACGACA | -0.0648
CCTTAGTA | 0.0202
AGTCTGGG | -0.0379
AACACGGC | -0.0354
AACTCTTG | 0.017
AGCAATGC | -0.145
AGTCGATA | -0.0709
AGATGGGA | 0.0236
AGACAGAT | 0.0471
ATAAGGCC | 0.083
GATCAAAA | 0.0613
AAACGAAG | 0.0779
CGACGTTC | -0.218
CTCTGCAA | -0.167
ATTCCTAA | 0.0582
TGTCATAA | 0.173
GCGACTCC | -0.217

Sequence | PBM 8-mer E-score
GTAAAAAA | 0.137
TGGCTAAA | 0.0382
GTGCGCCA | -0.027
ATACGCTA | 0.178
AGACGGAG | -0.121
GATATGAA | 0.156
CACAGCGA | -0.00654
CCGTTACC | -0.161
GTCGAATA | 0.112
CATAATGG | 0.178
ATCTTAGA | 0.00161
ATTATGTA | 0.377
GTGACGCA | -0.144
AAGTATAC | 0.338
ACGTCTGG | -0.0925
ACTCCCCC | -0.166
ACTTGAAC | 0.184
CACTAATG | 0.166
ACCAGTCT | -0.0601
ACTCTTCA | -0.0953
ACCGGTTG | -0.141
CGTCTCTC | -0.243
GTATCTAA | 0.219
TCCGTACA | 0.00932
AGGCAGTA | 0.106

Sequence | PBM 8-mer E-score
TAACGAAA | 0.297
GAACATAC | 0.036
ACAAAAAC | 0.131
GGCAACAC | -0.137
GACTACAA | 0.0701
ACGAGCGA | -0.117
ATCTCGAC | 0.0844
CGCAGATA | 0.00677
GAATGGCA | -0.00364
CAGGAGGA | -0.275
ACAGTGCG | 0.0644
GAGCGATA | -0.0344
ACTCCTCG | -0.125
CTAGTTGC | 0.155
GCGCACAA | -0.00512
AAGAATAT | 0.316
ACGGTGTA | -0.12
CGTCCCCC | -0.209
AGTCGTTA | 0.0888
CCTTGTTA | -0.019
ATACCATC | 0.0279
ATCTGATG | 0.0415
GCGGAAAC | -0.123
ATAATCGG | 0.122
GCATGTGA | -0.202

Sequence | PBM 8-mer E-score
CGACAGCA | -0.183
GACATGCA | -0.118
ATGGGTCG | -0.271
GTCGCATA | -0.0196
ACCTGAGT | -0.0838
AGGCCTTC | -0.249
CGACCTTC | -0.138
GATCTCGA | -0.173
ACTGGCAG | -0.263
AGATACAG | -0.0511
ACACGCAG | -0.19
GGGATAAA | 0.157
GGTCAAAC | -0.0373
CCCTCGCA | -0.13
GCAACTGA | -0.105
GCTCAGAA | -0.154
GTCGGAAC | -0.121
AGGATCCC | -0.274
GCTCCTAA | -0.127
ACGCCTGC | -0.235
GCATCCGC | -0.291
ACTTTAAG | 0.254
